These results are taken from PubChem BioAssay AID1346428 (National Center for Advancing Translational Sciences (NCATS), 2018).

Screen size: about 48,000 compounds; about 1,200 (2.5%) were called active. Another 2% or so got no clear call; they are omitted.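 How the source made its calls: active means activation of at least 60% and not above a set upper limit (about 1 call in 100 departs from these limits); inconclusive means activation of 40% to 60%, or above that upper limit; inactive means activation under 40%.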 Some of the results follow.

This test addresses Probable G-protein coupled receptor 32 (Homo sapiens) (UniProt O75388). Kind of test: qHTS for Agonists of Human Resolvin D1 Receptor DRV1. Further: 0% is about no effect. To be noted: CHO-K1 GPR32 beta-arrestin PathHunter luminescence, 90 min; at 76.9 µM; active compounds read high; zero percent set by DMSO-only wells. The method in brief: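 Agonism was scored as beta-arrestin recruitment to ProLink-fused GPR32 in stably transfected CHO-K1 cells, giving a chemiluminescent beta-Gal signal; compounds were incubated 90 min at 37 °C.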
UniProt O75388, sequence (O75388 whole entry, looked up, the tested form may be a part): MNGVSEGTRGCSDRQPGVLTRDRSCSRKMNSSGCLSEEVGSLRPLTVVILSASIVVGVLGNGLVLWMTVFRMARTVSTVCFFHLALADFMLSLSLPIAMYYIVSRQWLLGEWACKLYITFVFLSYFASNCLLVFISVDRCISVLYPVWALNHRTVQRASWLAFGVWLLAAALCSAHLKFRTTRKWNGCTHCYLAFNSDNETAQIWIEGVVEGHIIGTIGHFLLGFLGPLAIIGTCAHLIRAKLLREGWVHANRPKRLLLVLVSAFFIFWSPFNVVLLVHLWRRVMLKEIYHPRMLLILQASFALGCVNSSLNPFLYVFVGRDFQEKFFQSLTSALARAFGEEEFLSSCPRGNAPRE
Turning to `Cc1ccccc1-c1noc(-c2cc(-c3ccc(F)cc3)n[nH]2)n1`, the activation was inactive: -9.17%. In the case of `Cc1cn2c(=O)cc(COc3ccccc3NC(=O)c3ccc(Cl)cc3)nc2s1` it was inactive: -6.57%; in that of `CCOC(=O)c1ccc(NC(=O)CSc2nc3c([nH]c4ccccc43)c(=O)n2C)cc1`, inactive: -25.8%. In the case of `Cc1cc(C)cc(NC(=O)C2CCN(S(=O)(=O)c3ccc4c(c3)oc(=O)n4C)CC2)c1` it was inactive: 10.7%. Consider `CCCCc1nc2ccccc2n1CC(=O)N(COCC)c1c(C)cccc1CC`, for which the activation is inactive: -1.34%.

As for `Cc1ccc2oc(-c3ccc(Cl)c(NC(=O)c4ccc(OC(C)C)cc4)c3)nc2c1`, the activation is inactive: -10.5%. In the case of `Cc1ccc(S(=O)(=O)N(CC(=O)Nc2ccc3c(c2)OCO3)c2ccc(C)c(Cl)c2)cc1` it was inactive: -4.62%. Next, `CC(C)c1ccc(Nc2c(-c3ccco3)nc3ccccn23)cc1`: inactive: -18.7%. For the molecule `COc1cc(NC(=O)c2ccc(-n3cnc4cccnc43)cc2)cc(OC)c1`, the activation was inactive: 2.31%. In the case of `COc1ccc(/C=C/C(=O)Nc2ccc3nc(N4CCCCC4)cc(C)c3c2)cc1OC` it was inactive: -24.8%; in that of `COc1ccc(-c2noc(-c3ccc(N4CCC(C)CC4)c([N+](=O)[O-])c3)n2)cc1OC`, inactive: 9.71%. In the case of `COc1ccc(N(CC(=O)N2CCN(c3ccc(F)cc3)CC2)S(=O)(=O)c2c(C)n[nH]c2C)cc1` it was inactive: -0.337%; in that of `O=C(NCCc1csc2nc(-c3cccc(F)c3)nn12)c1ccc(Br)o1`, active: 97.1%; in that of `CCOc1ccc(NC(=O)Cn2cc(S(=O)(=O)N3CCN(c4ccccc4F)CC3)c3ccccc3c2=O)cc1`, inactive: -1.49%. In the case of `Cc1ccc(CNC(=O)CSc2nc3n[nH]c(C)c3c(=N)n2-c2cccc(C)c2)cc1` it was inactive: -8.48%; in that of `CC(C)(C)c1ccc(C(=O)NC(Cc2c[nH]c3ccccc23)C(=O)OCC(=O)c2ccc(Cl)cc2)cc1` (stereo not drawn), inactive: -12.1%; in that of `OC(C#CCN1CCCC1)(c1ccccc1)c1ccccc1`, inactive: -7.52%.

On to `COc1cccc(C(=O)Nc2c3c(nn2-c2ccc(Cl)cc2)CS(=O)(=O)C3)c1`, for which the activation is inactive: -6.62%. In the case of `CCc1ccc(NC(=O)CCNS(=O)(=O)c2ccc3c(c2)CCCC(=O)N3)cc1` it was inactive: -5.41%; in that of `Cc1ccc(CNC(=O)c2cccc(-n3cnc4cccnc43)c2)cc1`, inactive: 2.26%; in that of `CCOC(=O)c1scc(-c2ccccc2)c1S(=O)(=O)N1CCN(c2ccccc2OC)CC1`, inactive: -30.5%. Next, `Cc1ccc(-c2nc3ccccn3c2Nc2ccc3c(c2)OCO3)o1`: inactive: -4.29%; `Cc1ccc(NC(=O)C(Cc2ccccc2)n2cccc2)cc1C` (stereo not drawn): inactive: 16%. In the case of `COC(=O)c1ccccc1NC(=O)c1cc2c(-c3ccc(OC)c(OC)c3)nn(C)c2s1` it was inactive: 13.7%; in that of `C=CCC(CC=C)(CNC(=O)C(=O)Nc1ccc(C(=O)OCC)cc1)c1ccccc1`, inactive: 1.89%; in that of `O=C(/C=C/c1cn(CC(O)CN2CCCCCC2)c2ccccc12)c1ccc(Br)cc1` (stereo not drawn), active: 88%. As to `COc1cccc(NS(=O)(=O)c2ccc3c(c2)CCCN3C(=O)C2CCC2)c1`, the activation is inactive: 37.2%. For `Cc1cc2nc(-c3cccc(NC(=O)CSc4ccc(Cl)cc4)c3)oc2cc1C`, the activation was inactive: -3.7%. For the molecule `CCSc1nnnn1-c1cccc(C(=O)O)c1`, the activation is inactive: -1.68%. In the case of `CCOC(=O)c1cc(-c2ccc(C)cc2)n(CC(=O)NC2CCCCCC2)c1C` it was inactive: -22.4%; in that of `CCCN(C(=O)c1cc2c(s1)-c1c(C)cccc1OC2)c1ccc(OCC)cc1`, inactive: 5.14%; in that of `CC(C)c1ccc(Nc2nc3c(S(=O)(=O)c4ccc(Br)cc4)nnn3c3ccsc23)cc1`, inactive: -7.36%.

For the molecule `COc1ccc(-c2nn(-c3cccc([N+](=O)[O-])c3)c3c2cnc2cc4c(cc23)OCO4)cc1`, the activation is inactive: -14.5%. Next, `COc1ccc(C2c3[nH]c4ccc(OC)cc4c3CCN2C(=O)Nc2ccccc2)cc1` (stereo not drawn): inactive: -22.5%; `Cc1cccc(-c2c3c(=O)n(C)c(=O)n(C)c3c3cnc4ccccc4n23)c1`: inactive: -1.32%; `O=C(Nc1c(Cl)cccc1Cl)c1cc(-c2cccc(O)c2)on1`: active: 105%.

Regarding `Cc1c(NC(=O)Nc2ccc(C#N)cc2)c(=O)n(-c2ccccc2)n1C`, the activation was inactive: -4.13%. Next, `Cc1cccc(C(=O)Nc2ccc(OCc3cc(=O)n4c5c(sc4n3)CCCC5)cc2)c1`: inactive: 5.48%. `COc1ccccc1Nc1nn2c(=O)c3ccc(C(=O)NC(C)c4ccccc4)cc3nc2s1` (stereo not drawn): the activation was inactive: 7.93%.

Take `Cc1ccc(NC(=O)Cn2cc(S(=O)(=O)c3ccccc3)c(=O)c3cc4c(cc32)OCO4)cc1`: the activation is inactive: 1.91%. With `CCC(=O)Nc1sc2c(c1C(=O)Nc1cccc(C)c1)CCCC2`, the activation is inactive: 5.81%. In the case of `CCc1ccc(NC(=O)C2CCN(S(=O)(=O)c3c(C)noc3/C=C/c3cccs3)CC2)cc1` it was inactive: -19.1%; in that of `CCn1cc(C(=O)NCCOC)c(=O)c2cc(S(=O)(=O)N3CCOCC3)ccc21`, inactive: -9.65%; in that of `Cc1cccc(NC(=O)CSc2cn(CC(=O)N3CCOCC3)c3ccccc23)c1`, inactive: -9.42%. Next, `COc1ccc(S(=O)(=O)N(CCc2ccccc2)CC(=O)Nc2cc(C)ccc2C)cc1`: inactive: 6.37%; `CCOC(=O)C1=C(c2ccccc2)Nc2ncnn2C1c1ccc(Cl)cc1` (stereo not drawn): inactive: -5.47%; `O=C(CCC1N=C2c3ccccc3N=C(SCC(=O)Nc3ccccc3F)N2C1=O)NCc1cccs1` (stereo not drawn): inactive: -12.5%. Regarding `CCSc1nnc2c(n1)OC(c1ccc(OCC(=O)O)cc1)Nc1ccccc1-2` (stereo not drawn), the activation is inactive: -28.6%.

Regarding `COc1cc(OC)cc(C(=O)Nc2ccc3oc(-c4ccc(Cl)cc4)nc3c2)c1`, the activation is inactive: 12.3%. Next, `CCc1cccc(CC)c1NC(=O)c1c(C)oc2ccc(O)c(CN3CCOCC3)c12`: inactive: -0.191%; `COc1cc(Cl)c(C)cc1Nc1c2c(nc3ccccc13)CCC2`: inactive: -9.11%; `Cc1nc2ccc(S(=O)(=O)N(CC(=O)Nc3ccc(Cl)cc3)Cc3ccccc3)cc2s1`: inactive: -9.87%. Next, `CCOc1ccccc1CNC(=O)CN1C(=O)CCn2nc(-c3cn(C)c4ccccc34)cc21`: inactive: 28.9%.
